Reference: the supplement of paper PMC9446081
In all, about 39,000 compounds went through this assay and about 220 (0.56%) showed activity. This is one part of the list.

Tested on: Escherichia coli K-12 BW25113
Test: relative growth (OD600 normalised to plate interquartile mean) (fraction); higher = less growth inhibition, active = 0.2 or less
Conditions: 50 µM; LB; incubation time: overnight (16-24 h)
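Further: static incubation at 37 °C against the wild-type strain, values averaged over two biological replicates.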

Compound	relative growth
CC(O)C(=O)[O-].[Na+] (stereo not drawn)	inactive: 0.864
Clc1ccc(CON=C(Cn2ccnc2)c2ccc(Cl)cc2Cl)c(Cl)c1.O=[N+]([O-])O	inactive: 0.999
COCCN1CCCn2c(nc(CNS(C)(=O)=O)cc2=O)C1	inactive: 1.01
COc1ccc(S(=O)(=O)N(C)C[C@@H]2OCCCC[C@H](C)Oc3ccc(NC(=O)Nc4ccccc4)cc3C(=O)N([C@H](C)CO)C[C@@H]2C)cc1	inactive: 1.02
C[C@H](CO)N1C[C@H](C)[C@@H](CN(C)C(=O)c2cccnc2)Oc2cc(-c3cccc(C#N)c3)ccc2S1(=O)=O	inactive: 1.01
Cc1noc(C)c1NC(=O)Nc1ccc2c(c1)CC(=O)N([C@@H](C)CO)C[C@H](C)[C@H](CN(C)Cc1ccc(C(=O)Nc3ccccc3N)cc1)O2	inactive: 1.05
O=C(C[C@H]1CC[C@H]2[C@@H](COC[C@@H](O)CN2S(=O)(=O)c2ccccc2)O1)N1CCc2ccccc2C1	inactive: 1.02
C[C@H]1[C@H]([Si](C)(C)F)[C@@H](CCn2cc([C@H](O)c3ccccc3)nn2)O[C@]12C(=O)N(c1ccccc1)c1ccccc12	inactive: 0.989
C[C@@H]1CN([C@H](C)CO)C(=O)c2cc(NC(=O)Nc3ccc(C(F)(F)F)cc3)ccc2O[C@@H]1CN(C)S(=O)(=O)c1ccc(Cl)cc1	inactive: 0.998
C[C@@H]1CN([C@@H](C)CO)C(=O)Cc2cc(NS(=O)(=O)c3cn(C)cn3)ccc2O[C@H]1CN(C)S(=O)(=O)c1cn(C)cn1	inactive: 0.97
C[C@@H]1CCCCO[C@H](CN(C)Cc2ccncc2)[C@H](C)CN([C@@H](C)CO)C(=O)c2cc(NC(=O)Cc3ccccc3)ccc2O1	inactive: 0.99
C[C@@H]1O[C@@H](O[C@@H]2[C@@H](O)[C@H](OCCc3ccc(O)c(O)c3)O[C@H](COC(=O)/C=C/c3ccc(O)c(O)c3)[C@H]2O)[C@H](O)[C@H](O)[C@H]1O	inactive: 1.01
COc1ccc(CN(C)C[C@@H]2OCCCC[C@H](C)Oc3ccc(NC(=O)NC4CCCCC4)cc3C(=O)N([C@H](C)CO)C[C@@H]2C)cc1	inactive: 1.02
O=C(Nc1ccc(F)cc1)N[C@@H]1C[C@@H]2O[C@H](CO)CC[C@@H]2O[C@@H]1CCc1ccc(-c2ccccc2)cc1	inactive: 1.02
COc1ccc(NC(=O)Nc2ccc3c(c2)C(=O)N([C@@H](C)CO)C[C@@H](C)[C@H](CN(C)C(=O)c2ccccc2)OCCCC[C@@H](C)O3)cc1	inactive: 0.88
C[C@@H]1CCCCO[C@@H](CN(C)Cc2ccccc2)[C@H](C)CN([C@@H](C)CO)C(=O)c2cc(NC(=O)Nc3cccc4ccccc34)ccc2O1	inactive: 0.998
C[C@@H]1CN([C@H](C)CO)C(=O)c2cccc(NC(=O)Nc3ccccc3)c2O[C@@H]1CN(C)CC1CCCCC1	inactive: 0.938
CC(C)NC(=O)N(C)C[C@H]1Oc2ccc(NC(=O)Cc3ccccc3)cc2C(=O)N([C@H](C)CO)C[C@@H]1C	inactive: 1.03
COc1ccc(NC(=O)N2C[C@H](O)COC[C@@H]3O[C@H](CC(=O)NC4Cc5ccccc5C4)CC[C@H]32)cc1	inactive: 0.979

Compound	relative growth
O/N=C1\CCCCc2c1[nH]c1ccc(C3CCCCC3)cc21	inactive: 0.977
COc1ccccc1S(=O)(=O)N[C@H]1C=C[C@@H](CC(=O)N2CCN(C)CC2)O[C@H]1CO	inactive: 1.01
C[C@H](O)C#Cc1ccc2c(c1)O[C@H](CN(C)C(=O)Cc1ccccn1)[C@@H](C)CN([C@H](C)CO)S2(=O)=O	inactive: 1.01
C[C@@H]1CN([C@@H](C)CO)C(=O)c2cc(NC(=O)Nc3ccc(C(F)(F)F)cc3)ccc2O[C@@H]1CN(C)Cc1ccc2c(c1)OCO2	inactive: 0.973
CC(C)NC(=O)N(C)C[C@@H]1Oc2ccc(NC(=O)C3CCCCC3)cc2CC(=O)N([C@@H](C)CO)C[C@H]1C	inactive: 1
COc1ccc(CNC(=O)C[C@@H]2C[C@@H]3c4cc(NS(=O)(=O)c5ccc(F)cc5)ccc4O[C@@H]3[C@H](CO)O2)cc1	inactive: 1.03
Cc1noc(C)c1NC(=O)Nc1ccc2c(c1)C(=O)N([C@@H](C)CO)C[C@H](C)[C@@H](CN(C)Cc1ccccc1)OCCCC[C@H](C)O2	inactive: 1.01
COc1ccc2c3c([nH]c2c1)[C@H](CO)N(C[C@]13CN(C1)S(=O)(=O)C)C(=O)C1CC1	inactive: 1.01
COc1ccccc1S(=O)(=O)N(C)C[C@@H]1Oc2cc(C#CCC(C)C)ccc2S(=O)(=O)N([C@H](C)CO)C[C@H]1C	inactive: 1.01
O=C(CCCCCCC(=O)Nc1ccccc1O)N/N=C/c1ccc(N(c2ccccc2)c2ccccc2)cc1	inactive: 1.01
C[C@@H]1CN([C@@H](C)CO)C(=O)c2cccc(NS(=O)(=O)c3cn(C)cn3)c2O[C@@H]1CN(C)Cc1ccc(C(=O)O)cc1	inactive: 0.981
C[C@@H]1CN([C@@H](C)CO)S(=O)(=O)c2ccc(C3=CCCCC3)cc2O[C@@H]1CN(C)S(=O)(=O)c1cn(C)cn1	inactive: 0.992
Cc1ccc(S(=O)(=O)N(C)C[C@H]2Oc3cc(Br)ccc3S(=O)(=O)N([C@@H](C)CO)C[C@H]2C)cc1	inactive: 1.01
COc1ccc(S(=O)(=O)N(C)C[C@@H]2Oc3ccc(NC(=O)Cn4cnnn4)cc3CC(=O)N([C@@H](C)CO)C[C@H]2C)cc1	inactive: 1
CC(C)Cc1nc2ccccc2[nH]1	inactive: 1.04
C[C@H](CO)N1C[C@H](C)[C@@H](CN(C)Cc2ccc(Cl)c(Cl)c2)Oc2ccc(NC(=O)Nc3ccc(F)cc3)cc2CC1=O	inactive: 1.02
COc1ccc(NC(=O)Nc2ccc3c(c2)C(=O)N([C@H](C)CO)C[C@@H](C)[C@@H](CN(C)C(=O)Nc2cccc4ccccc24)O3)cc1	inactive: 0.996
C=C1C[C@]23CC[C@@H]4[C@@](C)(CCC[C@@]4(C)C(=O)O)[C@H]2CC[C@H]1C3	inactive: 1.01
CN(C)CCc1cc(Br)c(OCCCNC(=O)/C=C/c2cc(Br)c(OCCN3CCCC3)c(Br)c2)c(Br)c1	inactive: 0.993
